According to PubChem BioAssay AID485290 (National Center for Advancing Translational Sciences (NCATS), 2010):
The whole screen tested about 350,000 compounds, of which about 990 (0.28%) were called active. Inconclusive means that the source gave no clear call. Such entries were picked first, then a sample of the others. Calls follow the shape of the dose curve; as a rule, active = well fitted inhibition curve with a large enough effect; inconclusive = small, poorly fitted or top-dose-only effect; inactive = no such curve, though single readings can be large or run the other way. Potencies of inconclusive entries are doubtful fits and often do not repeat. A structure can be active in one record and inactive in another.

Target: Tyrosyl-DNA phosphodiesterase 1 (Homo sapiens) (UniProt Q9NUW8)
Test: qHTS Assay for Inhibitors of Tyrosyl-DNA Phosphodiesterase (TDP1); also: nearly all actives have a fitted effect of over 40% in size
Settings: recombinant TDP1, AlphaScreen DNA substrate cleavage; series mostly up to 130 µM
In short: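 Recombinant E. coli-expressed Tdp1 (1 nM) preincubated with compound 15 min at RT, then 5'-biotin/3'-phosphotyrosine-FITC DNA substrate (15 nM) added for 5 min. AlphaScreen beads (10 ug/ml) added, 10 min RT; tyrosine-FITC cleavage read as signal loss.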
Potency is read from the fitted curve at half-maximal effect; tags tell the direction and shape of the fitted curve.

UniProt Q9NUW8, sequence (Q9NUW8 whole entry, looked up): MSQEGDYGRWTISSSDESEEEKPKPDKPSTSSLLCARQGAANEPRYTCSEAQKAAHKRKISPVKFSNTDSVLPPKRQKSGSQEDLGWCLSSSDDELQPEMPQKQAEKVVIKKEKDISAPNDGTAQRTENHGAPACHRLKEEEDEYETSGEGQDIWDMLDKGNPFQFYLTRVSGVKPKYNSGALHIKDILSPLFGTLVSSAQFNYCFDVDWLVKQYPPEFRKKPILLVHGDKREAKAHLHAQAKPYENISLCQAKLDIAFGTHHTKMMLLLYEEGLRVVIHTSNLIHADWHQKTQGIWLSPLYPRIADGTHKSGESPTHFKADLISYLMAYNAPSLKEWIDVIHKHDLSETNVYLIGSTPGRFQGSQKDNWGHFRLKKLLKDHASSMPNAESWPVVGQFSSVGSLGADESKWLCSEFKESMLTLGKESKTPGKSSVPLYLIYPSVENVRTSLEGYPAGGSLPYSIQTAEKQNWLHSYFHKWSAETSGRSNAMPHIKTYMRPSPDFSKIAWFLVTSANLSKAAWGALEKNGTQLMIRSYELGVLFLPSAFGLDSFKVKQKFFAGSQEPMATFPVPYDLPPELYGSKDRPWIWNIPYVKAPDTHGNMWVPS

SMILES	Potency
CCCCON1C(=O)c2cccc3cccc(c23)C1=O	active: 35.5 µM
Cc1ccccc1NS(=O)(=O)c1ccc2[nH]cc(C(=O)N3CCCC3)c(=O)c2c1	inconclusive: 31.6 µM [inhibitor, single point]
CC1=CC(C)=Nc2ccccc2N1	inactive
O=C1CSC(=S)N1/N=C/c1ccc(O)c([N+](=O)[O-])c1	inconclusive: 3.16 µM [inhibitor, full curve]
O=C(c1ccccc1)c1cccc(C(=O)c2ccccc2)c1	inconclusive: 50.1 µM [inhibitor, partial curve]
O=C(COC(=O)c1cccs1)NCc1ccco1	active: 44.7 µM
C=C1c2cccc(C(F)(F)F)c2O[C@H](C(=O)OCC)[C@@H]1CCCCCC	inconclusive: 35.5 µM [inhibitor, single point]
O=C(O)CCCN1C(=O)/C(=C\c2ccco2)SC1=S	active: 22.4 µM
CC1=C(CC(=O)O)c2cc(F)ccc2/C1=C\c1ccc(S(C)(=O)=O)cc1	inconclusive: 0.251 µM [inhibitor, full curve]
Cn1cnc(S(=O)(=O)N2CCCC(C(=O)NCc3ccc(Cl)cc3)C2)c1 (stereo unspecified)	inactive
Cc1ccc(N(Cc2cccs2)C(=O)C(C)Oc2ccc(Cl)c(C)c2)cc1 (stereo unspecified)	inconclusive: 70.8 µM [inhibitor, single point]
COc1ccccc1-c1ccc(C(=O)O)o1	inconclusive: 50.1 µM [inhibitor, single point]
O=c1cc2c(=O)oc3cc(O)c(O)oc3c2c(O)c1O	inconclusive: 0.316 µM [inhibitor, full curve]
Cc1ccc(NC(=O)CSc2nnc(NC(=O)c3ccc(S(=O)(=O)N4CCOCC4)cc3)s2)cc1	inactive
CN(C)c1ccc(C(=O)/C=C/c2ccc(Br)cc2)cc1	inactive
Cc1nn(-c2ccccc2)c2nc(C(F)F)cc(C(F)F)c12	active: 56.2 µM
NNc1nc2c(Cl)c(Cl)ccc2s1	inconclusive: 5.01 µM [inhibitor, full curve]
CC(C(=O)NC1C(=O)N2C(C(=O)O)=C(CSc3nnnn3C)CSC12)n1cc(Cl)cn1 (stereo unspecified)	inconclusive: 22.4 µM [inhibitor, partial curve]
C=CCn1c(SCC(=O)N2CCOCC2)nc(O)cc1=O	inconclusive: 17.8 µM [inhibitor, partial curve]
Fc1ccc(C2=NN(c3ccccc3)C(c3ccco3)C2)cc1 (stereo unspecified)	inconclusive: 15.8 µM [inhibitor, partial curve]
C=C(C)C(=O)Nc1cccc(C2=NOC3(C2)C[C@@H](C(N)=O)N(C(=O)c2ccc(OC)cc2)C3)c1 (stereo partly specified)	active: 11.2 µM
O=C(Nc1ccccc1C(=O)O)/C(=C/c1ccc([N+](=O)[O-])cc1)NC(=O)c1ccc(Br)o1	inconclusive: 89.1 µM [inhibitor, single point]
CC[C@@H]1C(c2cccc(Cl)c2)=NN(c2ccccc2)[C@H]1C(=O)N1CCOC1=O	inconclusive: 25.1 µM [inhibitor, partial curve]

SMILES	Potency
COc1ccc(NS(=O)(=O)c2cc3[nH]c(=O)c(=O)[nH]c3cc2C)cc1Cl	inactive
CN1C(=O)CSc2ccc(NC(=O)N3CCN(c4ccccc4)CC3)cc21	inactive
Cc1ccc(-n2ccc(=O)c(C(=O)Nc3ccc(S(=O)(=O)Nc4nccc(C)n4)cc3)n2)cc1	inconclusive: 44.7 µM [inhibitor, partial curve]
Cc1ccc(C)c(N2CCN(C(=O)CN3C(=O)CSc4c3c(C)nn4-c3ccccc3)CC2)c1	inactive
Cn1c(=O)n(C)c2cc(S(=O)(=O)Nc3ccccc3C(=O)O)ccc21	inconclusive: 35.5 µM [inhibitor, single point]
COc1ccc(Cl)cc1NC(=O)COC(=O)c1ccc(C)o1	inconclusive: 39.8 µM [inhibitor, partial curve]
COc1cccc(NC(=O)COC(=O)/C=C/c2ccco2)c1	inconclusive: 31.6 µM [inhibitor, single point]
Cc1cc2nc3ccc(=[N+](C)C)cc-3sc2cc1N	inconclusive: 17.8 µM [inhibitor, single point]
Cc1nnc(N/N=C/c2cccc(OCc3ccc(Cl)c(Cl)c3)c2)n1N	inactive
CCOc1ccccc1NC(=O)Cn1c(=O)ccc2cc(S(=O)(=O)N3CCC(C)CC3)ccc21	inactive
Cc1ccc(N2C(=O)C(Cl)=C(NCc3ccccc3)C2=O)c(C)c1	inconclusive: 25.1 µM [inhibitor, single point]
CCCCC/C=C/C=C1/C(=O)C=C[C@@H]1C/C=C\CCCC(=O)O	active: 17.8 µM
COc1ccc(OCC2CCNCC2)cc1	inconclusive: 56.2 µM [inhibitor, partial curve]
CCOc1ccc(NC(=O)c2cccc(-n3cccc3)c2)cc1S(=O)(=O)N1CCOCC1	active: 0.794 µM
Cc1ccc(CN2C(=O)N/C(=C/c3ccc(-c4ccc(C(=O)O)cc4)o3)C2=O)cc1	active: 22.4 µM
COc1ccc2nc(NC(=O)c3ccc4ncsc4c3)sc2c1	inconclusive: 89.1 µM [inhibitor, partial curve, poor fit]
c1ccc2[nH]c(SCc3cscn3)nc2c1	inactive
CN(C)c1ccc(-c2cc(-n3ccnc3)ncn2)cc1	inconclusive: 2.82 µM [inhibitor, full curve]
C=CC(C)(C)c1[nH]c2ccccc2c1C1=C(O)C(=O)C(c2c[nH]c3c(CC=C(C)C)cccc23)=C(O)C1=O	inconclusive: 4.47 µM [inhibitor, partial curve]
COc1ccc(/C=N/N=C2/NC(=O)C(CC(=O)O)S2)cc1OCc1ccc(Cl)cc1Cl (stereo unspecified)	active: 70.8 µM
O=C(O)c1cccc(NC(=S)NC(NC(=O)c2cccc([N+](=O)[O-])c2)C(Cl)(Cl)Cl)c1 (stereo unspecified)	active: 79.4 µM
CN(Cc1ccccc1)C(=O)COC(=O)c1ccccc1SCC(=O)N1CCCC1	inactive
Cc1ccc(S(=O)(=O)N2Cc3ccccc3CC2C(=O)Nc2ccc3c(c2)OCO3)cc1 (stereo unspecified)	inconclusive: 56.2 µM [inhibitor, partial curve]
